Publication PMC4336329 (PLoS ONE, 2015)
The whole screen tested about 310,000 compounds, of which about 2,200 (0.71%) showed an effect of 50% or more. The effect is printed as a negative number. The list shows a part of the results.

Target: human ether-à-go-go-related gene (hERG) potassium channel (human, UniProt Q12809)
Assay: primary screen, population patch clamp on CHO cells stably expressing hERG

human ether-à-go-go-related gene (hERG) potassium channel, sequence (Q12809 whole entry, looked up): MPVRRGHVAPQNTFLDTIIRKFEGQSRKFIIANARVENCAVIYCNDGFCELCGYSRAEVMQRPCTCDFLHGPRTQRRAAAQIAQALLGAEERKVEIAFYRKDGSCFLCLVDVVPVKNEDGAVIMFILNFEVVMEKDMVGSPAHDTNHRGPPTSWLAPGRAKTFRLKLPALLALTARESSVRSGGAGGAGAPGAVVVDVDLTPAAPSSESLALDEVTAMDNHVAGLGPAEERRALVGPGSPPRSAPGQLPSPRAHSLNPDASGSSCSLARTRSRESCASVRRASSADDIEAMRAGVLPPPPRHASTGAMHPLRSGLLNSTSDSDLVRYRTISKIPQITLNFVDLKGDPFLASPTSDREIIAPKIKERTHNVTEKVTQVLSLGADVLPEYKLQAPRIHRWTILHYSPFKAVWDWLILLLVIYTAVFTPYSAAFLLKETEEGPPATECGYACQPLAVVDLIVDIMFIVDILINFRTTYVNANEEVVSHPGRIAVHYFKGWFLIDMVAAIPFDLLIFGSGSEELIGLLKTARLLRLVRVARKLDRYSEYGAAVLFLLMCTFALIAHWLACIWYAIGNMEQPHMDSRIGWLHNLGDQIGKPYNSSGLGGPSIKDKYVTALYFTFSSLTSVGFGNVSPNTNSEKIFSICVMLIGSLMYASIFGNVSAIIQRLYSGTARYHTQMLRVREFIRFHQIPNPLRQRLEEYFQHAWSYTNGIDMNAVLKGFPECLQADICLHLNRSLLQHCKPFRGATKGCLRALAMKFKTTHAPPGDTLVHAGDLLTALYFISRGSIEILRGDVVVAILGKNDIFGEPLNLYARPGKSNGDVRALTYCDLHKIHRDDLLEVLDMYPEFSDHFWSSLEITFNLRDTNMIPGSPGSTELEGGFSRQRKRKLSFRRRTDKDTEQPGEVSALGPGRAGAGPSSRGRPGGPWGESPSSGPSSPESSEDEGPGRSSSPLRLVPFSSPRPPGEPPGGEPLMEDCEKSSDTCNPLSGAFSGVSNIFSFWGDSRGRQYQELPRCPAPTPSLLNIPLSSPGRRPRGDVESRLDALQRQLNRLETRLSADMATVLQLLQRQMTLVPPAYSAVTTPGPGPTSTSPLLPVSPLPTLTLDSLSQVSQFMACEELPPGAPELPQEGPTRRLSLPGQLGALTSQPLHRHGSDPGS

SMILES	hERG current change (%, negative = inhibition) at 1uM
CNC(=S)N1CCN(CCN=Cc2c(O)n(-c3ccc(C)cc3)c(=S)[nH]c2=O)CC1	14.8%
O=C(NCCOCc1ccc(Cl)cc1)c1ncn[nH]1	13.6%
CC12CCC(C(=O)N3CCN(c4ncccn4)CC3)(c3nc4ccccc4nc31)C2(C)C (centres unmarked)	6.71%
CN1C(=O)CC(c2ccccc2)CC1=O	13.3%
O=C(NCC(=O)N1CCOCC1)c1ccccc1	15.7%
Cc1ccc(S(=O)(=O)Nc2ccc3nc(C)sc3c2)cc1	17.1%
N#CCSc1nnc(SCC#N)s1	11.6%
O=C(Cc1cccs1)Nc1ccccc1F	6.26%
Cc1ccccc1NC(=O)CCCSc1nc2ccccc2s1	6.68%
O=[N+]([O-])c1ccc2nc(-c3ccccn3)[nH]c2c1	15.8%
O=[N+]([O-])c1ccc(-c2c(-c3ccccc3)ncc3ccc(F)cc23)cc1	-0.962%
COc1ccc(OC)c(-c2cc(C(=O)NCc3ccc(Cl)cc3)no2)c1	12.1%
CCOc1ccc(S(=O)(=O)N2CCN(Cc3ccc4c(c3)OCO4)CC2)cc1Cl	5.35%
CCCC(=O)N1CC(=O)Nc2ccc(C)cc2C1c1ccccc1 (centres unmarked)	12.9%
COc1ccc(Oc2ncnc3c2oc2ccc(Br)cc23)cc1	17.7%
C/C(=N\OC(=O)c1ccc(C)cc1)c1sc(C)nc1C	-18.1%
O=C(Nc1ccccc1C(F)(F)F)c1ccc(CN2CCC(Cc3ccccc3)CC2)cc1	-0.909%
CCC(O)C(C)(C)C (centres unmarked)	7.45%
COc1cc(-c2nnc(SCC(=O)OC3CCCCC3)o2)cc(OC)c1OC	5.51%
CCCCCNc1nc(N2CCCC2)c2c(c1C#N)CCN(C)C2	-32.1%

SMILES	hERG current change (%, negative = inhibition) at 1uM
COc1cc(S(=O)(=O)N(Cc2cccnc2)Cc2ccco2)ccc1-n1cnnn1	-10.7%
Cc1ccc(N2CC(C(=O)NCc3cccs3)CC2=O)cc1C (centres unmarked)	3.86%
CC(=O)Nc1cc2c(cc1NC(=O)Cn1nnc(-c3ccc(C)o3)n1)OCCO2	10%
COc1cccc(OC)c1CN1CCCC(C(=O)c2ccccc2SC)C1 (centres unmarked)	-37.8%
CC(c1nnc(SCC(=O)Nc2cccnc2Cl)n1-c1ccccc1)N(C)C (centres unmarked)	11.4%
COc1ccccc1C(=O)Nc1ccc(-c2nnn(CC(=O)N3CCOCC3)n2)cc1	12.3%
Cc1ccc(-c2noc(COC(=O)c3ccco3)n2)cc1	3.59%
CC(C)CN1CCN(Cc2cnc(-c3ccc(Cl)cc3)nc2)CC1CCO (centres unmarked)	-7.6%
COC(=O)c1ccc(CN2CCCCC2)cc1	7.99%
CN(C)S(=O)(=O)c1ccc(C(=O)NCc2cccs2)cc1	4.65%
O=C1CC(C(=O)O)c2ccccc2N1 (centres unmarked)	3.27%
C/C(=N\N(c1ccccc1)c1ccccc1)c1ccc(O)cc1	13.6%
CSc1ccccc1NC(=O)c1cccnc1	14.7%
Cc1c(CCOC(=O)C23CC4CC(CC(C4)C2)C3)sc[n+]1Cc1ccccc1.[Cl-]	2.1%
O=C(CN1CCN(c2ccccc2)CC1)NCc1ccc(F)cc1	1.22%
COP(=O)(OC)C(Nc1ccc([N+](=O)[O-])cc1)c1ccccc1 (centres unmarked)	-11.9%
CCOc1ccc(S(=O)(=O)N(C)c2ccc(OCC(=O)Nc3nc4ccccc4s3)cc2)cc1	7.03%
CCOC(=O)C1C(=O)CC(C)(O)C(C(=O)OCC)C1c1ccc(SC)cc1 (centres unmarked)	8.99%
CC(Sc1nc2ccccc2s1)C(=O)Nc1nnc(C(C)C)s1 (centres unmarked)	-4.35%
Cc1ccc(S(=O)(=O)N2CCCC2C(=O)NC2CCCCC2)cc1 (centres unmarked)	12.7%

SMILES	hERG current change (%, negative = inhibition) at 1uM
CCNc1nc(NC(C)C)nc(OCCOC(=O)c2ccccc2)n1	-2.62%
O=C(NCCCN1CCCC1=O)Nc1ccc([N+](=O)[O-])cc1	11%
Cc1coc2c(C)c3oc(=O)c(CC(=O)N[C@@H](CC(C)C)C(=O)O)c(C)c3cc12	13%
Cl.c1ccc(-c2ccc(CNC3CC3)cc2)cc1	13.2%
O=C(Nc1nncs1)c1cc(S(=O)(=O)N2CCOCC2)ccc1Cl	12.6%
N#Cc1c(-c2ccccc2F)cc(-c2cccnc2)nc1N	10.9%
CCOC(=O)c1c(NC(=O)CN2C(=O)NC3(CCCCC3C)C2=O)sc(C)c1CC (centres unmarked)	10%
Cc1ccc(C(=O)NNC(=O)C2CCN(c3nccc(C)n3)CC2)cc1	11.3%
CC(=O)c1ccc(OCC(=O)NC2CCS(=O)(=O)C2)cc1 (centres unmarked)	16%
COc1cc(/C=C/C(=O)OCC(=O)Nc2cc(S(=O)(=O)N(C)C)ccc2Cl)ccc1O	-1.61%
CC(=O)NCc1nnc2c3ccccc3c(-c3ccccc3)nn12	3.53%
COc1cc(OC)cc(C(=O)Nc2ccc(S(=O)(=O)Nc3ncccn3)cc2)c1	7.99%
CCOc1ccc(NS(=O)(=O)c2cc(OCC(N)=O)c(C)cc2Cl)cc1	0.683%
S=C(NCCCc1ccccc1)Nc1ccccc1	14.8%
COc1ccc(-c2n[nH]c(C)c2-c2cnn(-c3ccccc3)c2)c(O)c1C	6.58%
N#CC1=CN(Cc2ccccc2)C=C(/C=N/Nc2ccccc2)C1	10.3%
CSc1ncccc1C(=O)NCC(c1cccs1)N1CCOCC1 (centres unmarked)	7.38%
O=C(OC1CCOC1=O)c1cccc(S(=O)(=O)Nc2cccc(Cl)c2)c1 (centres unmarked)	4.36%
Clc1ccc(C2=NN=C3COc4ccccc4N3C2)cc1	-1.19%
